Experimental data as given in paper PMC6919601, “Identification of Plasmodium dipeptidyl aminopeptidase allosteric inhibitors by high throughput screening” (PLoS ONE, 2019).
Values joined by “and” are separate entries in the source; they are usually repeats but may differ in a detail not shown here. Equal values may be shown once. Screen size: about 110,000 compounds; about 230 (0.21%) showed an effect of 50% or more. This is one part of the list.

biological target: DPAP1 (Plasmodium falciparum, UniProt Q8IIJ9); test: primary screen, percent inhibition; read by cleavage of a fluorogenic dipeptide substrate; higher = more effect of the substance; parameters: species or system P. falciparum D10 trophozoite lysates; single well
Sequence (Q8IIJ9 whole entry, looked up): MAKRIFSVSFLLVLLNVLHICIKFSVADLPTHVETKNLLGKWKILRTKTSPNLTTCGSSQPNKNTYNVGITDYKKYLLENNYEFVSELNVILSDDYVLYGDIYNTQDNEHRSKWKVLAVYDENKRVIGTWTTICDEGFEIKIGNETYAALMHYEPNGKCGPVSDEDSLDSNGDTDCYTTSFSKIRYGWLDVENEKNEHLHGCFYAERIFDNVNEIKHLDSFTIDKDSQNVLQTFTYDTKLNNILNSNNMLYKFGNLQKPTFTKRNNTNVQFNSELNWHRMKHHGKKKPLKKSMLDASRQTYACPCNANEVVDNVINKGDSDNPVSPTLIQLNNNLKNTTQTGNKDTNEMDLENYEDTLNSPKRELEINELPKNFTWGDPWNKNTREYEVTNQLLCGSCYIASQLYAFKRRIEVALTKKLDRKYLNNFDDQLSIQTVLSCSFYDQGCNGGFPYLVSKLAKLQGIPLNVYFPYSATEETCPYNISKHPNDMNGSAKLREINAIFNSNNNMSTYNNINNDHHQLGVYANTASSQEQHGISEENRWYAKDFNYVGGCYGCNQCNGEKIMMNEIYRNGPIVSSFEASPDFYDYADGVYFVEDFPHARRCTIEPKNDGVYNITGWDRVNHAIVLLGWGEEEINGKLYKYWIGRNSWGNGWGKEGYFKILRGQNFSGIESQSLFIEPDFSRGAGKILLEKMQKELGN
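Also: 30 min substrate incubation versus DMSO and 10 µM JCP410 controls.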

Structure (SMILES)	% Inhibition @ 10 uM
O=C(C1CCC(=O)N1Cc1ccccc1Cl)N1CCC2(CC1)OCCO2 (stereo not drawn)	-3.58%
CCCN1CCN(c2c(-c3ccccc3)c(=O)c2=O)CC1	-0.825%
COC(=O)c1ccc(-c2nc(-c3cc(Cl)ccc3OC)no2)cc1	4.18%
CC1(C)CC2=Nc3nc(C(F)(F)F)nn3C(c3ccccc3)C2=C(O)C1 (stereo not drawn)	4.08%
CC(=O)NCCNc1nc2c(-c3ccccc3)nnn2c2ccccc12	-1.21%
Cc1cccc(C(=O)N(CCN(C)C)c2nc3c(Cl)cccc3s2)c1	-0.613%
COc1ccc(CN(C(=O)c2ccco2)C2CCS(=O)(=O)C2)cc1 (stereo not drawn)	-5.26%
CCOc1ccc(C(=O)Nc2ccccc2CC)cc1	3.82%
CC(=O)N(C)c1ccc(NC(=O)CCCOc2ccc(Cl)cc2Cl)cc1	-4.01%
Cc1nc2c(=O)n(-c3ccccc3)c(=O)n(-c3ccccc3)c2n(C)c1=O	2.84%
CCNC(=O)NC1c2ccccc2CSc2ccccc21 (stereo not drawn)	3.91%
CC(C)c1ccc(C2C(C#N)=C(N)Oc3c2ccc2ccccc32)cc1 (stereo not drawn)	-2%
CCN1CCc2c(sc(NC(=O)Nc3ccc(Cl)c(Cl)c3)c2C(N)=O)C1	2.65%
CCOC(=O)c1c(N)n(-c2cc(Cl)cc(Cl)c2)c2nc3ccccc3nc12	-7.23%
O=C(Nc1nccs1)c1cccc2c1-c1ccccc1C2=O	2.16%
Cn1cc(C(=O)N2CCN(C3CCCCC3)CC2)c2c3ccccc3n(C)c2c1=O	2.01%
CN1C(=O)c2ccccc2C(C(=O)NCCC2=CCCCC2)C1c1cn(C)c2ccccc12 (stereo not drawn)	-2.56%
CCCc1[nH]nc2c1C(c1c(Cl)cccc1Cl)C(C#N)=C(N)O2 (stereo not drawn)	-0.818%
CCS(=O)(=O)C1=NSC2=NC(=O)/C(=C\c3c(C)[nH]c4ccccc34)C(=N)N21	3.48%
CC1=NN(C(=O)CCc2ccccc2)C(O)(c2cccnc2)C1 (stereo not drawn)	3.8%
CCN1C(=O)N/C(=C/c2cc(C)n(-c3ccncc3)c2C)C1=O	-1.43%
Cc1cc(C(F)(F)Cl)n2nc(C)c(-c3ccccc3)c2n1	9.17%
CC(NC(=O)C1C2CCC(C2)C1C(=O)O)C1CCCO1 (stereo not drawn)	-1.79%
Cc1nn(Cc2ccc(C(=O)Nc3nc4c(C)cccc4s3)o2)c(C)c1Br	2.1%

Structure (SMILES)	% Inhibition @ 10 uM
COc1ccc(C2C(C(=O)/C=C/c3ccccc3)=C(O)C(=O)N2CCCCCC(=O)O)c(OC)c1 (stereo not drawn)	-3.75%
Cc1ccc(NC(=O)c2ccc(C)c(S(=O)(=O)Nc3ccccn3)c2)cc1	-0.0217%
Cc1cc(C)c(S(=O)(=O)Nc2ccc(O)c(C(=O)O)c2)c(C)c1	-1.64%
Cc1cccc(C2=Nc3c(c(=O)n(C)c(=O)n3C)C(C(F)(F)F)(C(F)(F)F)N2)c1	0.032%
O=C(NC(C(F)(F)F)C(F)(F)F)N(Cc1ccccc1)Cc1ccccc1	0.78%
C=CCOc1cc(Br)c(/C=C(/C#N)C(=O)NCc2ccccc2)cc1OC	-1.84%
O=[N+]([O-])c1ccc(CN2CCCC(O)C2)cc1 (stereo not drawn)	1.63%
CCCNC1=N/C(=C\c2ccccc2)C(=O)N1c1cccc(Cl)c1	-4.02%
COCCCn1c(=O)c2sccc2n2c(CCCC(=O)NCc3ccccc3Cl)nnc12	-5.05%
O=C(CSc1nc(O)c2cnn(-c3ccc(F)cc3)c2n1)NCc1ccco1	-5.57%
CCN(CC)CCNc1nc2c(c(=O)n(C)c(=O)n2C)n1Cc1ccc(C)cc1	0.161%
O=C(CSc1nc[nH]n1)Nc1ncc(Br)cc1Br	-1.68%
CCCOCc1cc(CN2CCN(C)CC2)c(O)c2ncccc12	-2.28%
CCN1CCN(Cc2cccnc2)CC1	-0.192%
CCOc1ccc(/C=C/c2nc(C#N)c(NCc3ccco3)o2)cc1	-8.25%
O=C(CCc1ccccc1)Nc1nnc(S(=O)(=O)N2CCOCC2)s1	-1.72%
Cc1ccc(C)c(Cn2c(CN3CCCC(C)C3)nc3c2c(=O)n(C)c(=O)n3C)c1 (stereo not drawn)	-2.29%
CCc1nn(CC(=O)NCC2CCCN2CC)c(=O)c2cc3sccc3n12 (stereo not drawn)	6.46%
COc1ccc(C2C(=O)N(CCc3ccccc3)CC(=O)N2Cc2ccc3c(c2)OCO3)cc1 (stereo not drawn)	-0.519%
Cc1ccc(CCNC(=O)C2CCCN(S(=O)(=O)c3c(C)nn(C)c3C)C2)cc1 (stereo not drawn)	-1.03%
CCn1c2ccccc2c2cc(CN3CCCC(O)C3)ccc21 (stereo not drawn)	-0.828%
CCOC(=O)C1=C(C)N=C2SCCN2C1c1ccccc1 (stereo not drawn)	1.08% and -5.62%
C=CCN1C(=O)N/C(=C/c2cc(C)n(CC)c2C)C1=O	-2.37%
Cn1c(CCCO)nc2ccccc21	4.3%

Structure (SMILES)	% Inhibition @ 10 uM
COc1cccc(-c2cn3c(n2)sc2cc(C(=O)N4CCC(C(N)=O)CC4)ccc23)c1	29.2%
COc1ccc(C2CC(=O)C3=C(C2)NC(=O)CC3c2cccc(OC)c2OC)cc1 (stereo not drawn)	1.97%
CC1(NC(=O)N2CCOCC2)CCS(=O)(=O)C1 (stereo not drawn)	0.627%
CCn1c(SCC(=O)N2CCN(c3ccc(F)cc3)CC2)nc2ccccc2c1=O	-5.35%
COc1ccc(CC(=O)Nc2ccc(S(=O)(=O)N3CCCCC3)cc2)cc1	-2.98%
O=C(O)c1ccc2[nH]c(-c3cc4ccc(OCc5ccccc5)cc4oc3=O)nc2c1	-5.22%
CCn1cc(C(=O)N2CCN(Cc3ccc4c(c3)OCO4)CC2)c(=O)c2ccc(C)nc21	0.718%
CCCSc1nc(O)c(C(C)CCC)c(=O)n1CC (stereo not drawn)	38.9%
COc1nc(NCCc2ccc(OC)c(OC)c2)nc(N2CCC(Cc3ccccc3)CC2)n1	-1.43%
CC1CC(C)CN(C(=O)C2CCN(S(=O)(=O)c3ccc4nc(O)ccc4c3)CC2)C1 (stereo not drawn)	0.309%
O=C(NC(Cc1ccccc1)C(=O)Nc1ccc2ccccc2c1)c1ccccc1 (stereo not drawn)	-1.77%
Cc1ccc(S(=O)(=O)N2C(=O)/C(=C3\SC(N)=NC3=O)c3ccccc32)cc1	-4.97%
CCCCCN1COc2ccc3c(C)cc(=O)oc3c2C1	-1.01%
CN1C2=C(C(=O)CC(C)(C)C2)C(c2cccs2)C2=C1CC(C)(C)CC2=O	-0.63%
COc1ccc(CN(C(=O)c2cc(OC)c(OC)c(OC)c2)C2CCS(=O)(=O)C2)cc1 (stereo not drawn)	0.561%
CC(=O)c1ccc(NC(=O)C(C)Oc2ccc(Cl)cc2Cl)cc1 (stereo not drawn)	2.13%
CCOC(=O)c1cc(-c2nnco2)c(C)nc1C	1.03%
CC(C)c1ccc(-c2c(NCCN3CCCCC3C)c(=O)c2=O)cc1 (stereo not drawn)	-5.92%
COC(=O)c1ccc2c(c1)C(C)(C)C(/C=C/c1cc(O)ccc1O)=[N+]2C	-3.41%
Cc1ccc(NC2=NC(=O)C(CC(=O)NCc3ccccc3)S2)cc1C (stereo not drawn)	3.86%
COc1ccc2nc(NC(=O)c3sc(C)nc3C)sc2c1	-4.54%
Cc1ccc2c(cnn2C(=O)CCC(=O)NCCC(C)C)c1	6.89%
O=C1C2C3C=CC(C3)C2C(=O)N1Cc1ccc(Cl)cc1 (stereo not drawn)	-5.88%
COc1ccccc1S(=O)(=O)Cc1ccc(C(=O)NCC2CCCO2)o1 (stereo not drawn)	-3.32%

Structure (SMILES)	% Inhibition @ 10 uM
CCN1C(=O)C(C(=O)N(Cc2ccccc2)Cc2ccccc2)C2CC1(C)Oc1ccccc12 (stereo not drawn)	2.03%
CC1Cc2cc(C(=O)C3=C(O)C(=O)N(CCCN4CCOCC4)C3c3ccncc3)ccc2O1 (stereo not drawn)	-8.23%
COc1cc(C2=N/C(=C\c3coc4ccccc4c3=O)C(=O)O2)cc(OC)c1OC	-2.41%
O=C1OC(c2ccc(Cl)cc2)=C/C1=C\c1ccco1	-0.357%
O=C(Cn1cccc1C(=O)c1ccccc1)NCCC1=CCCCC1	2.76%
CCOc1cc(C2NC(C(=O)O)CS2)ccc1OCc1ccccc1Cl (stereo not drawn)	-5.11%
CC(C)c1ccc(/C=C/C(=O)NC(C)c2ccccc2)cc1 (stereo not drawn)	6.8%
NC(=O)c1cc(S(=O)(=O)N2CC=C(c3ccccc3)CC2)cs1	-3.74%
COc1ccc(CN2CCN(Cc3ccc(F)cc3)CC2)c(OC)c1	-0.999%
CCc1c(-c2ccccc2)n(C2CCCCC2)c2nc3c(c(=O)n(C)c(=O)n3C)n12	-0.703%
O=C(Nc1ccccc1C(=O)O)c1cccc([N+](=O)[O-])c1	3.25%
COCCNC(=O)CCn1nc(-c2ccc(C)cc2)ccc1=O	3.24%
CCC12CC3CC(O)(C1)CC(C(=O)O)(C3)C2 (stereo not drawn)	3.48%
O=C(CN1CCN(Cc2ccc3c(c2)OCO3)CC1)NCc1ccc(F)cc1	4.57%
CCc1ccc(/C=c2\sc3ncnn3c2=O)cc1	1.91%
COc1ccccc1C(=O)N(Cc1ccc(C(C)(C)C)cc1)Cc1ccco1	2.29%
COc1ccc(N(CC(=O)NCc2ccccc2C)S(=O)(=O)c2ccccc2)cc1Cl	0.727%
Cc1ccc(S(=O)(=O)N(C)CC(=O)Nc2ncc(C(F)(F)F)cc2Cl)cc1	-4.52%
COc1ccc(-c2csc(/C(C#N)=C/Nc3ccc(C(N)=O)cc3)n2)cc1OC	2.08%
Cc1noc2ncnc(N3CCCC(C(=O)NCc4cccnc4)C3)c12 (stereo not drawn)	-0.975%
COc1ccc(NC(=O)c2ccc(OC(F)F)c(OC)c2)cc1OC	3.52%
Cc1ccc(C)c(S(=O)(=O)N2CCN(S(=O)(=O)c3cc(C)ccc3C)C(C)C2)c1 (stereo not drawn)	-6.6%
COCc1cc(O)n2nc(C)c(-c3ccc(Cl)cc3)c2n1	1.72%
COc1ccc(NC(=O)Nc2ccc(SC(F)(F)F)cc2)cc1	3.06%
